The campaign covered roughly 52,000 compounds. About 4,300 (8.3%) were called active. Rule as the data show it: active = survival mostly below about 52% (no sharp cut-off); inactive = mostly above about 56%. The list shows a part of the results.
test system: DeltatarO mutant; experiment: growth inhibition of S. aureus wild type versus tarO mutant, primary screen, teichoic acid synthesis inhibitors, RN4220, OD600 (AID 463173); settings: OD600, 18 h, hits give low values, screened at 18.75 µg/mL (by protocol)

Compound	survival
Cc1nc2c(c(C)nn2-c2ccccc2)c(C)c1CCC(=O)Nc1ccccc1	inactive: 74%
CCCCSc1ncc(C(=O)OCC)c(N)n1	active: 78%
Cc1ccc(NC(=O)Cn2c(=O)n(Cc3ccc(F)cc3)c(=O)c3cccnc32)cc1C	inactive: 91%
N=c1c(C(N)=O)cc2c(=O)n3ccccc3nc2n1Cc1ccccc1	inactive: 83%
O=C(Nc1ccccc1C(=O)NCc1ccccc1)c1ccco1	inactive: 57%
CCCn1ccc2c(OCC(=O)Nc3ccccc3C(=O)OCC)cccc2c1=O	inactive: 94%
O=C(CCCCn1c(=O)c2ccccc2n(Cc2ccc(F)cc2Cl)c1=O)NCCc1ccc(Cl)cc1	inactive: 72%
COC(=O)c1ccccc1NC(=O)CCCn1c(C)c2cnn(-c3ccccc3)c(=O)c2c1C	inactive: 90%
O=S(=O)(NCCc1csc(-c2cccc(F)c2)n1)c1cc(F)ccc1F	inactive: 62%
Cc1ccccc1Cn1c(SCc2ccc(C(=O)N3CCCCC3)cc2)nc2ccncc21	inactive: 76%
O=C(CSc1nc2ccccc2n1CC(=O)N1CCCC1)Nc1ccccc1	inactive: 96%
CCCOc1ccc(OC(=O)c2ccc(-c3ccc(CCC)cn3)cc2)cc1	inactive: 69%
COc1ccc(CCNC(=O)c2cc(Nc3ccccc3)nc3ccccc23)cc1OC	inactive: 129%
O=C1CCc2cc(S(=O)(=O)NCc3ccccc3)cc3c2N1CC3	inactive: 82%
COc1cc(NC(=O)CCNC(=O)Cn2ccc3ccccc3c2=O)cc(OC)c1OC	inactive: 63%
COC(=O)c1c(NC(=O)CCCOc2ccc(C)cc2)sc2c1CCCC2	active: 8%
CCn1c(C(=O)Nc2ccccc2C(=O)OC)cc2sc(Cl)cc21	active: 31%
CC1Cc2ccccc2N1C(=O)Cn1nc(-c2nccc3ccccc23)oc1=O (stereo not drawn)	inactive: 96%
O=C(Cc1ccc(NC(=O)N2CCCCc3ccccc32)cc1)NCc1cccc(Br)c1	inactive: 91%
CC(=O)Nc1ccc2c(c1)S(=O)(=O)c1cc(NC(C)=O)ccc1-2	inactive: 85%
COc1ccc(Cl)cc1NC(=O)Cn1c(=O)n(-c2ccc(C)cc2)c(=O)c2ccc(C(=O)NCc3ccccc3Cl)cc21	inactive: 84%
COc1ccccc1CNC(=O)Cc1c(C)c2cc3c(C)coc3c(C)c2oc1=O	inactive: 62%

Compound	survival
COc1ccc(CNC(=O)CC(C)CC2=NS(=O)(=O)c3ccccc3N2)cc1 (stereo not drawn)	inactive: 102%
Cc1ccccc1Cn1c(=O)n(Cc2ccco2)c(=O)c2sc3ccccc3c21	inactive: 118%
CCOc1ccc(S(=O)(=O)Nc2ccc3c(c2)CCCN3C(=O)c2cccs2)cc1	inactive: 79%
CCOc1ccc(CCNC(=O)C2Cc3ccccc3N2C(=O)CC)cc1 (stereo not drawn)	inactive: 82%
CCOC(=O)c1ccc(Nc2c(-c3ccc(OC)cc3)nc3nc[nH]n23)cc1	inactive: 105%
CCC(=O)N1CCc2cc(CNC(=O)Nc3cc(OC)c(OC)c(OC)c3)ccc21	inactive: 79%
CCN(CC)C(=O)C1=C(C)Nc2nc3ccccc3n2C1c1ccccc1F (stereo not drawn)	inactive: 163%
CCOC(=O)c1cc2c(=O)n3ccccc3nc2n(CCCOC)c1=NC(=O)c1c(-c2c(F)cccc2Cl)noc1C	inactive: 54%
CCOC(=O)C1CCCN(C(=O)Cn2ncc3c(C)n(Cc4ccc(Cl)cc4)c(C)c3c2=O)C1 (stereo not drawn)	inactive: 59%
Cc1ccc(NC(=O)c2ccc3c(O)c(S(=O)(=O)c4ccc(Cl)cc4)c(=O)[nH]c3c2)cc1	inactive: 104%
CC1=C(C#N)C(NC(=O)c2ccccc2)(C(F)(F)F)C(=O)N1 (stereo not drawn)	inactive: 69%
CC(C)c1ccccc1NC(=O)C(Cc1c[nH]c2ccccc12)NC(=O)OC(C)(C)C (stereo not drawn)	inactive: 162%
Cc1ccc(S(=O)(=O)c2nc(-c3cccs3)oc2SCc2ccc(F)cc2)cc1	inactive: 62%
Cc1cccc(N2CCN(C(=O)Cn3c(C)c4cnn(-c5ccccc5)c(=O)c4c3C)CC2)c1C	inactive: 67%
CCCCn1c(SCc2ccccc2C)nc2ccsc2c1=O	inactive: 124%
Cc1nnc(SCc2cc(=O)c3cc(F)ccc3[nH]2)n1C	inactive: 75%
CC(Oc1ccccc1)C(=O)Nc1c(C(=O)Nc2cccc(F)c2)oc2ccccc12 (stereo not drawn)	inactive: 63%
Cc1ccc(C)c(N2CCN(S(=O)(=O)c3cc(C(=O)Nc4ccccc4C(F)(F)F)ccc3F)CC2)c1	inactive: 69%
CCOC(=O)c1c(NC(=O)COc2ccc(Cl)cc2Cl)sc2c1CCCCC2	inactive: 56%
CCc1ccc(S(=O)(=O)Nc2cc3c(cc2C)n(C)c(=O)c(=O)n3C)cc1	inactive: 64%
CN(C)c1ccc(CNC(=O)Cn2c(-c3cccs3)cc3cc(Cl)ccc32)cc1	inactive: 96%
CCCC(=O)N1c2ccccc2-c2nnc(SC)nc2OC1c1sccc1C (stereo not drawn)	inactive: 51%

Compound	survival
COc1ccc(S(=O)(=O)N2CCC(n3c(C)nc4cccnc43)CC2)cc1Cl	inactive: 135%
CN(C(=O)c1ccccc1)c1nc(-c2ccccc2)cs1	inactive: 83%
CCOC(=O)C1CCN(S(=O)(=O)c2ccccc2)CC1	inactive: 69%
Cc1n[nH]c(=S)n1CC(=O)n1c2c(c3ccccc31)CCCC2	inactive: 91%
Cc1ccc(-c2nnc(SCC(=O)NCc3ccccc3)o2)cc1	inactive: 142%
CC1=C(c2ccc(C)c(C)c2)S(=O)(=O)N=C1N1CCC(C(=O)NCc2ccc(N(C)C)cc2)CC1	inactive: 64%
Nc1c(-c2nc(-c3ccccc3Cl)no2)nnn1-c1ccccc1C(F)(F)F	inactive: 97%
CCC(C)[C@@H](C(=O)Nc1ccc(C)cc1)N1Cc2ccccc2C1=O (stereo partly drawn)	inactive: 74%
O=c1c2oc3ccccc3c2n(Cc2ccccc2F)c(=O)n1Cc1ccc2c(c1)OCO2	inactive: 78%
C/C=C1\NC(=S)N(Cc2ccccc2)C1=O	inactive: 84%
CCN(CC)S(=O)(=O)c1ccc(NC(=O)c2c(C)oc3ncnc(N4CCCCC4)c23)cc1	inactive: 81%
COc1ccc(-c2n[nH]c3c2C(c2ccccn2)N(C)C3=O)cc1 (stereo not drawn)	inactive: 43%
COc1ccc(-n2nc3c(N4CCC(C(=O)NC5CCCCC5)CC4)nnc(C)c3c2C)cc1	inactive: 90%
O=C1C2C(C(=O)N1c1ccccc1)N1CCCN1C2c1ccccc1 (stereo not drawn)	inactive: 82%
CCOc1ccc(CNS(=O)(=O)c2ccc3c(c2)CC(C)N3C(C)=O)cc1OC (stereo not drawn)	inactive: 83%
COc1ccc(OC)c(CCNC(=O)CCCn2c(=O)c3cccn3c3cccnc32)c1	inactive: 93%
O=C(NCc1ccccc1)c1ccc(CS(=O)(=O)c2c(Cl)cccc2Cl)o1	inactive: 76%
Cc1ccc(NC(=O)Cn2nc(C)c3nn(-c4ccc(Cl)cc4)c(C)c3c2=O)cc1F	inactive: 70%
COc1ccc(N2CCN(C(=O)CSc3nc(-c4ccccc4)no3)CC2)cc1	inactive: 83%
COc1ccc(CNC(=O)c2cnn(-c3ccccc3)c2-n2cccc2)cc1OC	inactive: 113%
CC(=O)c1cccc(NC(=O)CCn2nc(C)c(S(=O)(=O)N3CCCCC3)c2C)c1	inactive: 134%
O=C(c1cccs1)N1CCCc2cc(NS(=O)(=O)c3cc(F)ccc3F)ccc21	inactive: 73%

Compound	survival
CCc1ccccc1NC(=O)C1CCCN(S(=O)(=O)c2ccc3[nH]c(=O)ccc3c2)C1 (stereo not drawn)	inactive: 88%
Cc1ccc(OCC(=O)NCC(=O)OCc2cc(=O)n3nc(CC(C)C)sc3n2)cc1	inactive: 100%
O=C(NCCc1ccc(Cl)cc1)c1cnc2sc(N3CCCC3)nn2c1=O	inactive: 74%
Cc1ccc(NC(=O)c2nc(S(=O)(=O)Cc3ccc(F)cc3)ncc2Cl)cc1C	inactive: 84%
CCOC(=O)c1[nH]c(C)c(CCC(=O)N2CCN(c3cc(C)ccc3C)CC2)c1C	inactive: 102%
Cc1ccc2oc(=O)c3cnn(CC(=O)N4CCN(c5cccc(Cl)c5)CC4)c3c2c1	inactive: 81%
O=C(CSc1nc(=O)[nH]c2c1CCC2)Nc1cc(C(F)(F)F)ccc1Cl	inactive: 87%
Cc1cc(C(=O)NCCc2ccc(Cl)cc2)c2c(C)nn(-c3ccccc3)c2n1	inactive: 77%
COc1cc(CNC(=O)c2ccc(NC(=O)N3CCCCc4ccccc43)cc2)cc(OC)c1OC	inactive: 79%
C=Cc1ccc(Cn2c(C)c(CNCCc3ccc(OCC)cc3)c(C(=O)O)c2C)cc1	inactive: 79%
Cc1ccnc(NS(=O)(=O)c2ccc(NC(=O)c3ccc(C)c(C)c3)cc2)n1	inactive: 85%
Cc1cccc(C)c1OCC(=O)N(Cc1ccco1)Cc1ccco1	inactive: 63%
Cc1ccc2c(=O)cc(CSc3ncn[nH]3)[nH]c2c1C	inactive: 78%
CCOC(=O)c1c(C)[nH]c(C)c1S(=O)(=O)N1CCC(C(=O)N2CCN(c3ccc(F)cc3)CC2)CC1	inactive: 67%
CCn1cc(C(=O)N2CCN(c3cccc(Cl)c3)CC2)c(=O)c2cc(S(=O)(=O)N3CCC(C)CC3)ccc21	inactive: 91%
O/N=C1\CCCCC1C1=CCCCC1 (stereo not drawn)	inactive: 116%
Cc1ccc2nc(NC(=O)c3ccc(S(=O)(=O)N4CCC(C)CC4)cc3)sc2c1	inactive: 93%
Cc1nn2c(C)c(C(=O)N3CCN(c4ccc(Cl)cc4)CC3)cnc2c1-c1ccc(F)cc1	inactive: 88%
CN(C)c1ccc(C(=O)N2CCN(c3ccccc3)CC2)cc1	inactive: 66%
COc1cc2c(cc1OC)n(CC(=O)c1ccc(C)cc1C)c(=O)n1nc(CCn3nc(C)cc3C)nc21	inactive: 67%
O=S(=O)(c1ccc(-c2cnc(C3CC3)o2)cc1)N1CCN(c2ccccc2F)CC1	inactive: 87%
CCOc1ccc(C2=CSC3=NCCN23)cc1Cl	inactive: 93%
